# Results taken from the supplement of paper PMC11417369.
# The other results are listed elsewhere or left out.
# Test system: PfHDP1 homeodomain (GST-tagged)
# Assay: gcPBM binding intensity (ln(normalized median fluorescence intensity)); higher = stronger DNA binding
# Outline: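 The highest Masliner-normalised natural-log median intensity across replicate spots of either probe orientation is reported as binding intensity. GST-tagged P. falciparum DNA-binding domains expressed in E. coli were applied for 1 h to an Agilent 4 × 180k array of primer-extended double-stranded 36-bp intergenic genomic probes plus negative controls, and bound protein was detected with Alexa488 anti-GST antibody and scanned at 488 nm.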
row,Sequence,gcPBM binding intensity (ln)
1,ATAATATTATACTTTGCACACATCTGAAATGACATA [CACACA_site3952],10.4
2,AAAAGTACAATATATATGTATGTGTATAGAATGGTT [TGCATGCA_negctrl_site76],7.28
3,TACAATTTGATATATACACACAAATAAATTATGCTT [CACACA_site6534],6.67
4,AGAAAAGAAATTAGTTGTACTCTGATGAATTATCCT [XGTACX_site6284],6.06
5,TAATAATAGTGAGAGTGTACTTTAAATAAAATATAT [XGTACX_site2850],6.52
6,TTCTATATATATATAGACAAACGATAAAATAAAAAA [GTGCAC_negctrl_site142],6.66
7,TACCCAAAGTTACATACACACTAATATTTACACCAT [CACACA_site4709],6.88
8,GATGTTCATCACTACACACACAAAGAAATATAAATA [CACACA_site7294],6.57
9,ATATGAAGTTATATAGTGCACATGTACAACCAAATC [GTGCAC_site9974],9.89
10,TGACTTTTTTTTTTTTTTTTTTTTTTTTATCTTTTT [CACACA_negctrl_site481],5.88
11,TTATGATTATAACGTTTTGACATTAGGCATATATAT [CACACA_negctrl_site1396],6.45
12,TGAAATGATATATAAACACACATATATAAATATGTA [CACACA_site7616],6.08
13,AAATATAATTTGCGATGTACACATATATATTTATTT [XGTACX_site1568],6.43
14,CAGTTATTTTAATGTGGTACACAATTTTAAAATTAT [XGTACX_site8571],6.39
15,AAGAAAAAAAAAAAAAAAAAAAAAAAAAATTTATGA [TGCATGCA_negctrl_site294],5.71
16,AATTTTATAAAAAGTAGTACATATCAAACACCTTGA [XGTACX_site2297],6.63
17,ATATAAAATGAACATAGTACTTTTTATATATTTTAA [XGTACX_site7461],5.84
18,TACCTATACCTATACACACACACACGGAAATAAATA [CACACA_site6750],7.17
19,AAAAAAAAAAAAAGTACACACTTTTGCGTACAAGTA [CACACA_site5672],6.42

row,Sequence,gcPBM binding intensity (ln)
1,TATTTATTATATAAATGTACATAATATATGTATGTC [XGTACX_site2815],6.41
2,TGATGGGACATAAATATTGAGATGATCATAAGATAA [TGCATGCA_negctrl_site276],6.8
3,TATATCATAAAAAATTGTACATATATATATTATATA [XGTACX_site6726],6.45
4,AAAGATAATATATGCACACATATAAATATATAAATA [CACACA_site3477],10
5,GTGTAATTTATTGTGTTGCACTTTTTTTTTTTTTTT [GTGCAC_site9644],7.52
6,AATACAATTTTTAACACACACACAATAATACAGATA [CACACA_site4823],6.98
7,TTAATATAGGAATATGCACACATATATACATACATA [CACACA_site8432],9.95
8,AAGATAGACTCATATGCATGCATTCACATACCAACA [TGCATGCA_site179],7.37
9,GGATAAGATGTATATACACACAATTTAAAAAAATAA [CACACA_site910],6.66
10,ATAAAATAATTAATGGGTACATAATTAAATAAAGAG [XGTACX_site3309],6.97
11,TTTTAAAAAAAAAAAAAAAAAATTAAAATAATTCAA [TGCATGCA_negctrl_site69],5.45
12,AATGTGCCCACGCGTACACACAAAAAAAGAAAAAAA [CACACA_site2003],6
13,CATACATAGAAACACACACACACACCCACCCACAAA [CACACA_site494],7.38
14,TTTAATTTGTTATACACACACAAAAAAAATTATAAA [CACACA_site3937],6.61
15,ATTCTATATTTAAATGCATGCACTTTCTATTTTTTT [TGCATGCA_site435],8.5
16,TTTTATTTATCTAATTGTACTCATTCTTTTTTGATG [XGTACX_site2876],6.37
17,GACACTTTGAAGGGTACATGCAGAAAAAAAAAAAAA [TGCATGCA_site89],6.27
18,GCTAAAAGTATATGCACACACATATAGATGCACATA [CACACA_site6868],10.7
19,TACTAATATAATAAAAGTACTTAAATAAATATATGT [XGTACX_site2220],6.63

row,Sequence,gcPBM binding intensity (ln)
1,TCTTTTTAAATATATACACACCGTGTCTACAGATAC [CACACA_site5784],6.53
2,ACATGATGTCATAAATGTACGCACACATACATAAAC [XGTACX_site1198],6.78
3,GAACATTTCACACAAAAAAAAAAAAATATATATATA [TGCATGCA_negctrl_site518],8.79
4,TTTGCCCAAAAAGGTACACACCACAATGTACATAAA [CACACA_site4599],6.72
5,TCATATATGGGTAGTATACACACTGTATATTTAGGA [CACACA_site2844],6.55
6,TTTTATTTAAATACACGTACATAATGTATATATATA [XGTACX_site7160],7.4
7,GTATAAAAGTTATATACACACAACAGAATTACATAT [CACACA_site6212],6.67
8,TTTGAAAAAAATTAATGTACATTTGAAATGACATAT [XGTACX_site3902],6.01
9,ATACCTTCTTTTATGTTTAATTAATATACTTTTTAT [CACACA_negctrl_site1557],7.36
10,AAAAAAAAAAAACACACACACACAAATATATAAAAA [CACACA_site1171],6.77
11,AATACATACATACATACACACATATAAATATATTAT [CACACA_site7650],6.96
12,TGTTTGTAATTATGTATGCACTTTTTTGTATGTGTG [GTGCAC_site9668],7.52
13,ACATATCTATCGTTTTTAATTGTATATTATTATAAC [TGCATGCA_negctrl_site144],6.4
14,TAATGAGCGCTTGTAGTGCATTATATTCAAAAATAT,9.19
15,ATATTCTTGTTTAATACACACTGTAGTATTATATAT [CACACA_site4400],7.1
16,AGAAAAAAACAACATGCACACGCACCCACAAAAAAA [CACACA_site7908],8.3
17,TCCCACTGTTATATTGAAAAAAAAAAAAAAAAAAAA [TGCATGCA_negctrl_site288],6.48
18,TCTTGTATATGTTAAAGTACACAACAATATATATAT [XGTACX_site6814],8.34
